The source of these data is patent US20210340208A1 (ANWITA BIOSCIENCES, published 2021).

One test has as its target T1, IL-2Rα-Fc fusion protein (human, UniProt P01589 22-240).
T1 construct: also called human IL-2Rα (CD25); CD25; not shown: Fc part and any linker are not described; captured on an anti-human IgG Fc sensor
T1 sequence: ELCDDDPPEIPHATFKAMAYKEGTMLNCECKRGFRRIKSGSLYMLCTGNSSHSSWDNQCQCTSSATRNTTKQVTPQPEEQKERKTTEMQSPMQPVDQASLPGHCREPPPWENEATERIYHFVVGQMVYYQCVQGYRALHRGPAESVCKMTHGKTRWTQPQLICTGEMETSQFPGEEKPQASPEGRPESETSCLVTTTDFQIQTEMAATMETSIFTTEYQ
Put plainly: BLI (Octet RED96), IL-2Rα-Fc on AHC biosensor, global fit. The protocol: OCTET® RED96 was used to characterize the interactions of a wild-type hIL-2 and hIL-2 muteins with a human IL-2Rα (CD25). Briefly, an IL-2Rα-Fc fusion protein was loaded onto an anti-human IgG Fc capture (AHC) biosensor. The biosensor was then dipped into a solution containing a wild-type hIL-2 (WT IL-2) or an IL-2 mutein at various concentrations. Primary experimental data was analyzed with global fitting to determine a binding affinity (Kd).

Another test concerns the target T2, human CD122-Fc (AbroBio) (human, UniProt P14784 27-239).
T2 construct: also called IL-2Rβ; not shown: Fc part and any linker of the bought protein are not described; captured on an anti-human Fc sensor
T2 sequence: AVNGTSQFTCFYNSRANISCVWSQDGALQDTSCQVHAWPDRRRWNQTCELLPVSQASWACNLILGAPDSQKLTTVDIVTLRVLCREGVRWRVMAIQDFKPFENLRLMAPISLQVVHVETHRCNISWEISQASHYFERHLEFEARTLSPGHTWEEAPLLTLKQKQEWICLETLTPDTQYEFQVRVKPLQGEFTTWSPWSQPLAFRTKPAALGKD
Put plainly: BLI (Octet RED96), CD122-Fc on AHC sensor, 400 nM hIL-2 polypeptide. The protocol: OCTET® RED96 was used to characterize the interactions of a human CD122-Fc (AbroBio) with a wild-type hIL-2 and hIL-2 muteins. Briefly, an anti-human Fc sensor (AHC) loaded with the human CD122 was dip into 400 nM of an hIL-2 polypeptide. The binding signaling of fusion protein A1 was normalized to 1.
(Biolayer interferometry detects binding as a change in optical thickness at a sensor tip.)

B1: hIL-2-anti-HSA A1 (ligand)
chain: [letters of about 150 residues not shown]GSGGSGGSGGSGEVQLVESGGGLVQPGGSLRLSCAASGSTWSINTLAWYRQAPGKQRDLVARISSGGSTYYADSVKGRFTISRDNSKNTLYLQMNSLRAEDTAVYYCYAQSTWYPPSWGQGTLVTVSS
notes: C-terminus fused by a peptide linker to an anti-HSA VHH; made in ExpiCHO cells; also called fusion protein A1; hIL-2 mutein (C125S)
One may read the Kd as a measure of binding affinity in units of concentration. Low values mean tighter binding, high ones weaker binding. Molecule B1 registered a dissociation constant (Kd) with IL-2Rα-Fc fusion protein of 21 nM. The “CD122 Binding Response (A1 normalized to 1)” value with human CD122-Fc (AbroBio) was 1.
